# Reference: the supplement of paper PMC5499739
# Whole data set: some 16,000 sequences, median “Z-score” near -0.37, cut for the highest 2% near 3.2. The list shows a part of the results.
# System: RBM10 RRM1-ZnF (GST-tagged construct)
# Experiment: RNAcompete 7-mer binding Z-score; higher = stronger binding preference
# Description: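 RNAcompete: 20 pmol GST-tagged RBM10 RNA-binding constructs were incubated with a designed RNA pool of about 241,000 sequences up to 41 nt (1.5 nmol) on glutathione beads for 30 min at 4 °C and washed. Bound RNAs were identified by microarray hybridisation. Each RNA 7-mer is scored by a one-sided Z-score of its enrichment, computed over probes that contain the 7-mer within longer pool sequences.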
row,Sequence,RNAcompete 7-mer binding Z-score
1,UACGCGC,-0.396
2,GAACAAC,-0.233
3,CCUAGAU,-0.626
4,UGGGGGA,3.71
5,CUGCGAU,-0.73
6,GGUACAC,0.638
7,ACCUAAU,-0.863
8,ACGUGCG,-0.0479
9,GCUUCGC,-0.623
10,UCCAAUC,-0.847
11,AAUGGGC,2.5
12,UACUACC,-0.811
13,UCAUUUG,-0.756
14,CCAGAAG,-0.37
15,GCCCCUC,-0.295
16,GUUGGCC,0.218
17,CGGACUC,-0.415
18,AGAACCA,-0.769
19,UCUGGAA,-0.23
20,GAACUAA,-0.285
21,GUUUGGG,3.59
22,CCCCAGA,-0.386
23,UUGUAGG,1.67
24,AUGAAAC,-0.444

row,Sequence,RNAcompete 7-mer binding Z-score
1,ACGGUGA,1.1
2,ACCUCAC,-0.678
3,AAUUGGA,1.6
4,GUACACU,-0.279
5,UGGGCAG,2
6,UUAUUCA,-0.555
7,GUACUAA,-0.236
8,AGUAUGU,0.0203
9,CUUGGAG,0.608
10,UACCCAU,-0.948
11,AUCGACA,-0.392
12,CGCAUAC,-0.61
13,CCUGUCU,-0.808
14,ACGUAUU,-0.503
15,UCAUCGU,-0.639
16,UCGUGCA,-0.555
17,CAUUUCG,-0.915
18,CUAGAUG,-0.188
19,CGCGCUG,-0.129
20,CGAGCGG,3.69
21,GGGUCGA,1.84
22,ACAUUCG,-0.649
23,GAUGCGG,2.18
24,UCAUUGA,-0.259

row,Sequence,RNAcompete 7-mer binding Z-score
1,UAUAGAA,-0.11
2,GUAAAAG,0.901
3,CCCACGC,-0.259
4,CAACUGU,-0.668
5,CACUGAG,-0.106
6,UAGGGAU,2.45
7,ACCAUUA,-0.847
8,CCGGGUA,0.625
9,GCUCGGC,-0.0772
10,AACGCGU,-0.259
11,UCGAUUG,-0.314
12,UAACGAA,-0.535
13,GAGAGAC,0.186
14,UACAUCG,-0.503
15,CCAUAAC,-0.769
16,GGAGUUC,0.426
17,GGGUAAU,3.01
18,CAGCAGA,0.326
19,GAUAAUA,0.166
20,UGCCCGA,-0.431
21,AGUCUCA,-0.668
22,UGCGCAG,0.128
23,AAAUAGC,-0.279
24,GACGAGU,0.365

row,Sequence,RNAcompete 7-mer binding Z-score
1,CGGCCUA,-0.772
2,CAGAGAA,0.0658
3,GACGAUU,-0.23
4,AUGCGGC,-0.0187
5,UGAUGGC,0.673
6,UAUAUCG,-0.363
7,CAUCCUC,-0.746
8,GGUCAAU,0.293
9,AGAAGUA,0.173
10,UUGAACA,-0.428
11,AACGGUG,1.56
12,CAUGGCC,-0.548
13,CAAACGA,-0.347
14,GUACGUG,0.384
15,GGUAUCC,0.00729
16,AGGCGCU,-0.116
17,ACUAGCC,-0.704
18,CGCCUGG,-0.253
19,AUAGAAG,0.605
20,GGCCGCC,-0.532
21,AGACAUG,0.17
22,UGUGUCA,-0.503
23,UCCGCUU,-0.86
24,CUAUAUC,-0.789

row,Sequence,RNAcompete 7-mer binding Z-score
1,GCAGCGA,0.381
2,UUAUUGU,-0.457
3,UGGCCAG,0.03
4,GCCCGUC,-0.552
5,GGUAACA,1.02
6,CUCUGUC,-0.834
7,UGCCUAG,-0.35
8,CGAUCCC,-0.698
9,CUCGACA,-0.714
10,CAAUUCC,-0.824
11,AGCGGGG,4.14
12,UAGUCUG,-0.474
13,AUAAGUG,0.465
14,UUAACAA,-0.402
15,AUUCAGC,-0.681
16,CUCAAAC,-0.756
17,AGCUGUA,-0.422
18,CAAGUCA,-0.578
19,ACAUGCC,-0.87
20,AUAGUCG,-0.145
21,AUAUGUA,-0.288
